The campaign covered roughly 46,000 compounds. About 60 (0.1%) were called active. Another 3% or so got no clear call; they are omitted. Calls follow the shape of the dose curve; as a rule, active = well fitted inhibition curve with a large enough effect; inconclusive = small, poorly fitted or top-dose-only effect; inactive = no such curve, though single readings can be large or run the other way. Some of the results follow.

This assay is described as follows: Primary qHTS assay for Inhibitors of ovarian cancer metastasis using an organotypic tumor microenvironment (TME) model. Also: nearly all actives have a fitted effect of over 65% in size.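 As to activity change, negative = inhibition: plate controls were DMSO wells for no effect and tomatine positive control wells for full effect.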 Particulars: SKOV3ip1-GFP adhesion/invasion on 3D omental model, fluorescence; series mostly up to 45.8 µM; activity change, negative = inhibition: at the top concentration. An outline of the steps:
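A 3D layer of primary human omental fibroblasts, mesothelial cells, fibronectin and collagen I, grown 48 hr, received SKOV3ip1-GFP cells in serum-free medium plus compounds at 0.36-46 umol/L. After 2 hr RT and 16 hr 37 C, fixed adherent GFP cells were counted; normalized to DMSO and tomatine.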
Background: In qHTS, concentration-response curves come from the screen itself.
For the compound `Cc1nc(-c2ccc(S(=O)(=O)N3CCN(c4cccc(C(F)(F)F)c4)CC3)cc2)co1`, the outcome was inactive.
Consider `CC1CCN(C(=O)c2cc3c(=O)n(C)c4cc(Cl)ccc4c3s2)CC1`, for which the “activity change, negative = inhibition” value was inactive: -24.5%.
On the same count and under the same terms, the result for `CCCOc1ccc(-c2nonc2NC(=O)c2ccco2)cc1OCCC` reads inactive: 1.31%.
Same read-out and setting: in the case of `O=C(Cn1c(-c2cccs2)cc2ccccc21)N1CCN(c2ccc(Cl)cc2)CC1` it was inactive: -0.328%; in that of `CCOc1ccc(C2C(C(=O)Nc3ccccc3)=C(C)Nc3nc(-c4ccccc4)nn32)cc1OC` (centres undefined), inactive: -0.395%.
`COc1cccc(-c2csc(-c3c(N)c(C(=O)c4ccc5c(c4)OCO5)n4ccccc34)n2)c1`: the outcome was inactive.
In the case of `Cc1ccc(NC(=O)Cn2c(=O)c3ccc(Cl)cc3n3nncc23)cc1`, the “activity change, negative = inhibition” value was inactive: -22.3%.
Same read-out and setting: in the case of `CCNC(=O)c1ccc(C)c(-n2c(C)nc3cccnc32)c1` it was inactive: 3.56%.
On to `Cc1ccc(CNC(=O)c2c[nH]c3ccc(S(=O)(=O)N4CCOCC4)cc3c2=O)cc1`, for which the result was inactive.
For `Cc1cc(C)n(CCc2nc3c4ccccc4nc(SCc4ccc(F)cc4)n3n2)n1`, the “activity change, negative = inhibition” value is inactive: 1.33%.
On the same count and under the same terms, the result for `O=c1c2cnn(-c3ccc(F)cc3)c2ncn1Cc1ccccc1Cl` reads inactive: 4.7%; that for `COc1ccc(OC)c(NC(=O)C(C)n2c(=O)cc(C)c3c(C)nn(-c4ccccc4)c32)c1` (centres undefined), inactive: 3.69%; that for `COc1ccc(-c2cn3c(n2)sc2cc(C(=O)NCCC4=CCCCC4)ccc23)cc1`, inactive: 9.12%.
Regarding `CCc1ccc(N2CC(c3nnc(NC(=O)c4ccco4)s3)CC2=O)cc1` (centres undefined), the “activity change, negative = inhibition” value was inactive: -0.164%.
Turning to `N#Cc1ccccc1NC(=O)CSc1nc(-c2ccccc2)cc(C(F)(F)F)c1C#N`, the “activity change, negative = inhibition” value was inactive: -1.57%.
The same measure, in the same setting: in the case of `COc1ccc(C)cc1NC(c1nnc(-c2ccccc2)o1)c1ccc(F)cc1Cl` (centres undefined) it was inactive: 5.7%.
Still for that read-out and setting: in the case of `CCOC(=O)c1c(NC(=O)c2ccc(C)cc2)sc2c1CCCCC2` it was inactive: 1.85%.
On to `CC(=O)c1ccc(S(=O)(=O)Nc2ccc(-c3cn4c(C)csc4n3)cc2)cc1`, for which the result was inactive.
Take `Cc1c(C(=O)Nc2ccc(F)cc2F)oc2c1-c1nn(Cc3c(F)cccc3Cl)cc1CC2`: the “activity change, negative = inhibition” value is inactive: -5.21%.
For the compound `O=C(NC1CC(=O)N(c2ccc(F)cc2)C1)C1CCCC1` (centres undefined), the “activity change, negative = inhibition” value was inactive: 27.8%.
Same read-out and setting: in the case of `Cc1ccc(Cc2cnc(NC(=O)c3ccc4c(c3)CC(c3ccccc3)OC4=O)s2)cc1` (centres undefined) it was inactive: -14.3%.
For the compound `Cc1ccc(Nc2nc(-c3ccccc3)nc3ccccc23)cc1`, the “activity change, negative = inhibition” value is inactive: 1.02%.
Still for that read-out and setting: in the case of `COc1cc(Cl)c(C)cc1NC(=O)c1cc(S(=O)(=O)N2CCCC2)ccc1F` it was inactive: 3.51%; in that of `Cc1ccc(-n2cnc3cc(C(=O)NCCC4=CCCCC4)ccc32)c(C)c1`, inactive: 2.9%.
Still for that read-out and setting: in the case of `Cc1cc(NC(=O)c2ccccc2F)ccc1-c1nc2ccccc2s1` it was inactive: 2.6%; in that of `CCc1ccc(NC(=O)c2sc(-n3nc(C)c(CCC(C)C)c3C)nc2C)cc1`, inactive: 3.03%; in that of `Cc1cccc(C)c1OCC(=O)N(Cc1ccccc1F)C1CCS(=O)(=O)C1` (centres undefined), inactive: 9.05%.
On the same count and under the same terms, in the case of `COc1ccc(C(=O)N2CC(=O)Nc3ccc(Br)cc3C2c2ccc(F)cc2)cc1OC` (centres undefined) it was inactive: -3.72%.
Consider `CCOC(=O)c1c(NC(=O)/C(C#N)=C/c2ccc(OC)cc2)sc2c1CCC2`, for which the “activity change, negative = inhibition” value was inactive: -5.71%.
Same read-out and setting: in the case of `CCOC(=O)Cc1ccc(NC(=O)N(Cc2ccc(OC)cc2)C2CCN(C(C)=O)CC2)cc1` it was inactive: 15.9%.
Same read-out and setting: the result for `CCOC(=O)c1c(C)[nH]c(CCC(=O)NCc2ccc(OC)c(OC)c2)c1C` reads inactive: -4.96%.
Turning to `COc1ccc(S(=O)(=O)N2CCC(N3CCN(Cc4ccccc4)C(=O)C3=O)CC2)cc1`, the compound was classed as inactive.
As for `CCn1c2ccccc2c2nnc(N3CCN(c4cccc(Cl)c4)CC3)nc21`, the “activity change, negative = inhibition” value was inactive: 13.3%.
The same measure, in the same setting: in the case of `COc1ccc(-c2noc(CCCC(=O)Nc3cccc(Cl)c3C)n2)cc1` it was inactive: 0.235%; in that of `Cc1ccc(CN2CCSc3ccc(C(=O)NCc4ccc(OC(C)C)cc4)cc32)cc1`, inactive: 3.47%.
With `COCCCNC(=O)Cn1c(=O)n(-c2cccc(C)c2)c(=O)c2c1c1cc(C)ccc1n2C`, the outcome was inactive.
As to `Cc1ccc(N2CCn3c2nc2c3c(=O)n(C/C=C/c3ccccc3)c(=O)n2C)cc1C`, the “activity change, negative = inhibition” value was inactive: -6.58%.
Same read-out and setting: the result for `CSc1nn(CC(=O)Nc2ccccc2F)c(N)c1S(=O)(=O)c1ccccc1` reads inactive: -3.56%.
For `CC(Cc1ccc(O)c(O)c1)(NN)C(=O)O` (centres undefined), the “activity change, negative = inhibition” value is inactive: 2.1%.
The same measure, in the same setting: the result for `COCc1cc(C)nc2sc(C(=O)Nc3ccccc3O)c(N)c12` reads inactive: 16.2%; that for `COc1ccc(C2CC(=O)c3c([nH]c(C(=O)OCc4ccccc4)c3C)C2)cc1` (centres undefined), inactive: -29.7%.
Same read-out and setting: the result for `Cc1ccc(OCCn2cc(C(=O)c3cccs3)c3ccccc32)cc1` reads inactive: -9.06%.
Still for that read-out and setting: the result for `COc1cccc(/C=C/c2onc(C)c2S(=O)(=O)N2CCC(C(=O)N3CCCCC3)CC2)c1` reads inactive: 2.04%.
As to `CCOc1ccc(C2=NC(c3ccncc3)=Nc3ccc(C)cc3N2)cc1OCC`, the call was inactive.
For the compound `COc1ccccc1-c1c(C)nn2c(-c3ccccc3)cc(-c3ccccc3)nc12`, the “activity change, negative = inhibition” value is inactive: -10%.
Same read-out and setting: in the case of `COc1ccc(CNC(=O)Cn2c(=O)nc(-c3ccccc3)c3cc(Cl)ccc32)cc1OC` it was inactive: -4.86%; in that of `Cc1cccc(N2CCN(C(=O)Cn3nc(C)c4sc5ccccc5c4c3=O)CC2)c1C`, inactive: 9.33%.
On the same count and under the same terms, the result for `Cc1ccccc1NC(=O)c1cc2c(-c3ccccc3)nn(-c3ccccc3)c2s1` reads inactive: 25%; that for `COc1ccccc1NC(=O)C1=C(C)Nc2c(C(=O)Nc3ccc(C)cc3)cnn2C1c1cccc(OC)c1OC` (centres undefined), inactive: -9.51%.

(Values after PubChem BioAssay AID1963576 (National Center for Advancing Translational Sciences (NCATS), 2024).)
